# Laboratory results as given in paper PMC4336329 (PLoS ONE, 2015).
# Hit rate of the full screen: of about 310,000 compounds, about 14,000 (4.5%) showed an effect of 50% or more. The effect is printed as a negative number. The list shows a part of the results.
# Molecular target: human ether-à-go-go-related gene (hERG) potassium channel (human, UniProt Q12809)
# Assay: primary screen, population patch clamp on CHO cells stably expressing hERG
# 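Also: peak tail current of the secondary pulse compared with the same well before compound.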
# Sequence of human ether-à-go-go-related gene (hERG) potassium channel (Q12809 whole entry, looked up): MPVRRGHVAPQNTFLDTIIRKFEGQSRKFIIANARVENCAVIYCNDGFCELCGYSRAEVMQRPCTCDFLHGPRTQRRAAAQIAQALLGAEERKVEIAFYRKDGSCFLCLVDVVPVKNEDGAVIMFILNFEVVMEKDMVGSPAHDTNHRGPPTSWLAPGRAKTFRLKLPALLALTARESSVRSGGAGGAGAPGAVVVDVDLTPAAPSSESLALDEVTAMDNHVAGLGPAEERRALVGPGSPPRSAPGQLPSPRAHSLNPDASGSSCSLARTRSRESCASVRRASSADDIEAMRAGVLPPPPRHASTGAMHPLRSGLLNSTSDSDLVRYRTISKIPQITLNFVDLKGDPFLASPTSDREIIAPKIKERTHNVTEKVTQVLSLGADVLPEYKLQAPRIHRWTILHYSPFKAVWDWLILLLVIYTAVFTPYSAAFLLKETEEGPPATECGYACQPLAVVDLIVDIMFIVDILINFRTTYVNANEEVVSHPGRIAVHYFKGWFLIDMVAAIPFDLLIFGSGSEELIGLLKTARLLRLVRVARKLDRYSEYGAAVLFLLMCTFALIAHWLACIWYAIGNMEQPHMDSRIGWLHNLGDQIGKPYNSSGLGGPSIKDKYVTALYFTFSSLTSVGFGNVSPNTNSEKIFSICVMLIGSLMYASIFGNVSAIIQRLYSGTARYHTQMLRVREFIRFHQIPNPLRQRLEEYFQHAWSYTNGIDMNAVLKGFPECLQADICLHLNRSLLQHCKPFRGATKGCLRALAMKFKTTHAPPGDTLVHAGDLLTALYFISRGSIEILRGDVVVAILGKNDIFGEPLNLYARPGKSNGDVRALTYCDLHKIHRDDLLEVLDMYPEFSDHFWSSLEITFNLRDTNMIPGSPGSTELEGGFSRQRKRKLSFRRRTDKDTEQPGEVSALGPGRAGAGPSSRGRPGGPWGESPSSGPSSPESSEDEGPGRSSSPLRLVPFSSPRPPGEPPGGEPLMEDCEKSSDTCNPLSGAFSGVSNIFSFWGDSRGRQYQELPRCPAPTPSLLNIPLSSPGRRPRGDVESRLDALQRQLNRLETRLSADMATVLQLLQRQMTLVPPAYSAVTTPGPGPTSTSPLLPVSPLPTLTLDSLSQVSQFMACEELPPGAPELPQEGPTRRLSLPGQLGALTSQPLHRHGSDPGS
row,SMILES,"hERG current change (%, negative = inhibition) at 10uM"
1,O=c1c(-c2ccccc2Cl)coc2c(CN3CCCCC3)c(O)ccc12,-10%
2,C/C(CC(=O)NCc1ccco1)=N\NC(=O)Cc1ccc(Cl)cc1,13.9%
3,CCOc1ccc(NC2c3ccccc3C(=O)N2Cc2ccco2)cc1 (stereo not drawn),-27.9%
4,Cc1cccc(C(=O)Nc2ccc(NC(=O)Cc3ccc(Cl)cc3)cc2)c1,1.26%
5,Cc1sc2ncnc(OCC(=O)Nc3ccc4c(c3)OCCO4)c2c1C,3.04%
6,Cc1cc(Cl)cc2c(N=Nc3ccccc3C(=O)O)c(O)[nH]c12,18.3%
7,CCNc1nc(N)nc(Oc2ccc(OCc3ccccc3)nn2)n1,4.99%
8,NC(N)=NCCCC(NC(=O)c1ccccc1)C(=O)Nc1ccc2ccccc2c1 (stereo not drawn),12.5%
9,Cc1ccc(C(=O)NC(C(=O)Nc2cccc(S(N)(=O)=O)c2)C(C)C)cc1 (stereo not drawn),-2.38%
10,COc1cccc(NC(=O)CN2CCN(c3nc(-c4cccc(OC)c4)cs3)CC2)c1,8.87%
11,COc1cccc(NC(=O)CN2CC(c3ccccc3)CC2=O)c1 (stereo not drawn),-7.6%
12,CCCOc1ccc(CN2CCOCC2)cc1OC.Cl,-7.18%
13,COc1ccc(C(=O)N2CCN(c3c(C)cccc3C)CC2)cc1OC,-68.8%
14,Cc1ccc(C2(c3noc(CN4CCC(c5ccncc5)CC4)n3)CCCC2)cc1,-55.5%
15,COc1cc2c(cc1OC)CN(C(=O)CCNS(=O)(=O)c1ccccc1F)CC2,5.9%
16,CC(C)(C)OC(=O)N1CCC(CNC(=O)c2ccccc2)CC1,14.2%
17,Nc1c(C(=O)NC2CCCC2)c2nc3ccccc3nc2n1N,25.1%
18,CN(c1ccccc1)c1nc(N)c(C#N)c(CC#N)c1C#N,-15.3%
19,COCCCn1c(SCC(=O)NC2CCCCC2)nc2ccccc2c1=O,-16.9%
20,CC(Sc1nnc(-c2ccccc2F)n1C1CC1)C(=O)NC(N)=O (stereo not drawn),12.1%
21,CCCCCCc1nnc(NC(=O)OCC)s1,-40%
22,CCOC(=O)N1CCN(C(=O)/C=C/c2ccc(C(C)(C)C)cc2)CC1,-26.1%
23,Cc1ncc([N+](=O)[O-])n1CC(O)CCl (stereo not drawn),4.43%

row,SMILES,"hERG current change (%, negative = inhibition) at 10uM"
1,O=[N+]([O-])c1c(NCCO)cc(Sc2nc3ccccc3s2)c2nonc12,26%
2,CCCCN1C(N)=NC[C@@H]1CCCCN,8.7%
3,Cc1ccc2c(c1)NC(=O)C(CC(=O)Nc1ccc(CN3CCC(C)CC3)cc1)O2 (stereo not drawn),-9.4%
4,Cc1cccc(-n2cc3c(=O)n(C)c(=O)n(C)c3c2)c1,12.3%
5,COC(=O)c1ccc(C2c3[nH]c4ccccc4c3C[C@H]3C(=O)N(C)CC(=O)N23)cc1 (stereo partly drawn),0.396%
6,Cc1noc(C)c1C(=O)Nc1nc2ccc(S(C)(=O)=O)cc2s1,2.86%
7,CCN(CC)CCNC(=O)c1ccc(NC(=O)Cc2ccccc2F)cc1,-6.75%
8,CCNc1oc(COc2ccccc2F)nc1C#N,7.7%
9,N/C(=N\N=C/c1ccc(-c2ccc(O)c(C(=O)O)c2)o1)N[N+](=O)[O-],12.7%
10,CCC(NC(=O)NCc1cccnc1)(C(F)(F)F)C(F)(F)F,5.9%
11,C/C(Cl)=C\Cn1c(O)c(N=NC(N)=S)c2ccccc21,-11.2%
12,COC(=O)c1ccc(NC(=S)Nc2ccc(O)cc2)cc1,22.9%
13,CSc1ncccc1C(=O)Nc1ccc2nc(C)sc2c1,-0.421%
14,FC(F)(F)c1nnc2ccc(-n3ccnc3)nn12,10.1%
15,CCOC(=O)C1=C(C)N=c2s/c(=C\c3ccc(C(=O)O)cc3)c(=O)n2C1c1ccc(F)cc1 (stereo not drawn),-45.8%
16,O=C(CCS(=O)(=O)c1ccc(Br)s1)NCc1cccs1,-4.96%
17,CN1CC(=O)N(CC(=O)Nc2cccc(S(=O)(=O)N3CCOCC3)c2)C1=O,14.4%
18,Cc1nnsc1C(=O)NC1CCCc2c1cnn2-c1ccc(C(C)(C)C)cc1 (stereo not drawn),-16.2%
19,COc1ccc(-n2c(=O)c3ccccc3n(CC(=O)Nc3cccc(OC)c3)c2=O)cc1,10.3%
20,Cc1cc(NC(=O)CSc2nccn2-c2ccc(Cl)cc2)no1,-3.34%
21,CCc1nc(SCC(=O)Nc2ccc(F)cc2)c2c(=O)n(C)c(=O)n(C)c2n1,-20.1%
22,COc1cc(OC)cc(C(=O)Nc2nnc(Cc3ccc(OC)c(OC)c3)s2)c1,16.3%
